Laboratory results published in the supplement of paper PMC3334620.
The full ranking holds about 33,000 sequences; the median of “E-score (-0.5 to 0.5)” is about -0.013, and the highest 2% start at about 0.3. The list shows a part of the results.

The sequences below were run against T1, Msn1 (UniProt P22148) (assay: PBM E-score (8-mer binding enrichment) (E-score (-0.5 to 0.5)); higher = stronger / more preferred TF binding; most listed sequences are background and not binding sites). Details: protein concentration: 200 nM; construct: GST-full length.
T1 sequence: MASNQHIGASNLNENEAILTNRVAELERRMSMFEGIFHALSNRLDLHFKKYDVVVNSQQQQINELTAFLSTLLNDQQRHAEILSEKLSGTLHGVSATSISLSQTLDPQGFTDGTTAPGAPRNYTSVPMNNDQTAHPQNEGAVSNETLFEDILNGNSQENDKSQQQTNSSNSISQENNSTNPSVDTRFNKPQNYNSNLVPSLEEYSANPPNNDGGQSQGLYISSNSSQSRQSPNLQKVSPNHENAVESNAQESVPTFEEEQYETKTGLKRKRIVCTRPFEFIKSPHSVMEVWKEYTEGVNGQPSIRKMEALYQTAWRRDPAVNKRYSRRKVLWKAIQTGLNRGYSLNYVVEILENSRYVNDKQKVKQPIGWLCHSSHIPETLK
In short: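 Full-length yeast transcription factors or their DNA-binding domains, GST-tagged and expressed with PURExpress, were applied at about 100-200 nM to universal all-10-mer Agilent arrays. These arrays had been made double-stranded by primer extension on fresh or once-stripped slides. Detection used fluorescent anti-GST, normalisation used masliner, and E-scores for ungapped eight-base words pooled with reverse complements came from the Universal PBM Analysis Suite.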

Sequence	PBM E-score
AACTACCT	-0.0246
ATACGGTG	-0.0953
CCGGTAAC	0.0836
GCGCAACA	0.0115
CGTGTTAG	-0.0135
GAAAGGTC	0.00658
GCATGTTA	0.0661
ACTTGACG	-0.0849
CTTTGCGA	0.0688
AAGGCCTA	-0.103
ACCCTCTG	-0.223
GAGAGGCC	-0.205
AATTGTGT	-0.0542
GGTTGATA	-0.0457
CATTTACA	0.0253
CGCGCTTA	0.0928
CTAGTTTA	0.0758
AGGACGAG	0.00512
AAAGTGGA	0.0341
ACTCATAT	0.00588
GCCAAGAC	0.0238
CTGACCAC	-0.193
ATTCGCCA	-0.039
CTTCGAGC	-0.0695
AAAATCTC	0.0002

Sequence	PBM E-score
CGTGATGA	-0.113
ATGCTAAT	0.0422
CATTAAAA	0.261
GGAGGCCC	-0.356
CGCCGGGC	-0.00571
AAGTCGCT	-0.0636
GAGCTTAC	-0.0923
GGATTCAC	-0.0279
ATTGGCTG	-0.139
AGGCCTCC	-0.0887
CGGCTCAA	0.0475
TATTGTAA	-0.0211
TCACCTCA	-0.108
AGCCCTAG	0.0205
GCTAACCA	-0.11
GCGGATAA	0.0261
AACTCAGT	-0.108
GACCAAAA	0.193
ATGTACAC	0.268
CCCGGGGC	-0.265
CCCTGACG	-0.155
CACGCGGA	0.111
GAACCATC	-0.0276
ATCTATAA	0.0177
AAAGCATA	-0.00173

Sequence	PBM E-score
CATATTCC	0.0363
CAGGTACA	0.29
GGGCTCCA	-0.358
TACACAAA	0.205
CCGCCAAA	-0.00339
AACTACAC	0.0736
CCACCCAG	-0.0137
AATAGCTA	-0.0565
CCTGTGAA	0.0235
GCTCTTAA	0.103
GGGGTAGA	-0.13
GATAGTCA	-0.0452
GTATGGAA	-0.0401
AAAATAGG	0.211
CCGGCGCC	0.0624
GAGATGAA	0.024
GCTAGAGA	-0.0388
ACGGTTCG	-0.00068
CGACTCTC	-0.106
GAAAGACC	-0.151
CAGGATAC	-0.0293
AATCATAT	0.165
TAGGGAAA	-0.0483
CTGTGTAA	0.026
AAGCCTCC	-0.165

Sequence	PBM E-score
GTGACAAC	0.139
CTTTCATA	0.115
AAAATGTA	0.254
ACGTTCGA	-0.0518
AGATGAAC	0.279
ATGACCAG	0.102
CTTGATTA	0.0192
ATAGAGTG	-0.104
CTATATCA	-0.00353
GGTGGACA	0.325
AAATTCGG	0.146
CAGGCACG	-0.204
CCCGCTCC	-0.372
AGATTGGC	-0.178
AAGGCCGC	-0.0422
GGTTGCGA	0.0472
CGGGGTTA	-0.0803
ATAGCAAT	0.119
AATGTTGC	0.0459
AAGTTGCG	-0.00973
ACAAGACT	0.0607
CCCAGGGG	-0.394
GGTAGCCA	-0.0667
AGAGCAGG	-0.00831
TATCGAGA	0.112

Sequence	PBM E-score
AAACCCAA	0.0915
ATGAATTC	0.0224
CAATCACA	0.112
AACAATCA	0.139
ATCATAGG	-0.0658
ACCGTAGT	-0.0268
TGTGTAAA	0.169
ACCCGAAG	-0.0262
CACTTTCC	-0.221
GCGTTAGC	0.0468
CAAATTAC	0.0417
GAGACGAC	0.0177
CTTAGGAA	0.00599
GGGTGCGA	-0.192
TGTTCAAA	0.0806
AGGTGTCA	0.0091
CCGAAAAA	0.223
AAAAATCA	0.162
GTTCAGGA	-0.0428
CCATACAA	0.0759
ACGATAGG	-0.181
AGAGTAAC	-0.0442
GACGTTAA	0.154
TCAACTAA	0.0282
AACTTAGG	0.102

Sequence	PBM E-score
GTCTGGCA	0.0377
GGGTTCAA	0.0139
ATTTTTCG	0.282
CCGGATAA	0.172
GTTGGAGA	-0.0165
CTCTCCCA	-0.197
ACGGCAGG	-0.261
GTATATGA	0.118
ATTTACTA	0.206
ACGGGAAT	-0.0339
CTATTGTC	0.288
TCCTCTCA	-0.256
GATGGAAA	-0.126
ACCAAGTA	-0.0228
GTTGTGAA	0.0984
ATACCGTA	-0.0273
GTCGGGTA	0.0767
GGGTCTAA	-0.109
CTTAGATA	0.217
AATCGCCT	0.0986
ATGGCCAT	0.145
GTTACTAA	0.168
CTGTTCGC	0.0285
CTGGGGTA	-0.00889
GCCCACCC	-0.145

Sequence	PBM E-score
GGCCTACA	-0.0381
AAAATCGC	-0.00487
CGGGGAAC	-0.0755
CCGTACAG	-0.0369
AACGCTCG	0.109
CCAAACTC	-0.054
CGACCTAC	-0.107
ACCCGCGC	0.0994
GATGGGGC	-0.162
CTCTAGGC	-0.144
CCGGACGG	-0.0417
CTGCGTGC	-0.159
CCCTGCTC	-0.172
GGAGACCA	-0.0845
CATATTCA	0.211
AGGGTGAA	-0.177
CGGCATGA	0.182
CTTTACCC	-0.00697
CACTGATC	-0.0557
CGCCCTTA	-0.0904
CCTGAAAC	0.0986
CGAGTACC	0.0728
AGGCGCAC	-0.0415
AATGATAC	0.0824
CACTTCAA	0.0447

Sequence	PBM E-score
TTCTGAAA	0.173
CATTTGCC	-0.00883
ATACTGTA	0.235
ACAACCGG	0.0947
GACGTCTA	-0.0898
AAACAACT	0.113
AAAGAGGA	-0.224
GCCGAGCA	-0.105
GTATATCA	0.165
AAATTAGC	0.101
CGGTCAGC	-0.112
CACCTCCC	-0.17
GGAAGGGA	-0.222
ACGGCCGC	0.0164
AGAAGGGA	-0.215
GGAGGTTA	-0.136
CGCGTTTA	0.09
AAGGAGAC	-0.2
CTAATTAC	0.0275
GGTAATAA	0.125
AGAGTCAA	-0.202
AGCAATAT	0.136
CGAAGCCG	-0.0934
ACATGCTA	0.128
AGGTAGCA	-0.36

Sequence	PBM E-score
CATGGGAA	0.0041
CTTGTGGA	0.0651
ATGTACGG	0.108
GATGGTAA	-0.0474
AGTTGGCG	0.0078
GATTATCA	-0.0136
GACAGAGA	0.236
CGACGTCG	-0.0112
CGAAGTCG	0.125
ACCATAGG	-0.0558
AATAAAAA	0.216
GAGTTAGA	-0.188
ACCCATTA	-0.0843
AAGGGGCT	-0.041
CAAGTGTG	-0.0323
GTGCTTGA	-0.0761
CGAACACG	0.0294
CCCACGCG	-0.271
GCGTATCC	-0.037
GGCTTGGA	-0.128
CCGATGCG	-0.112
CGGTACGA	-0.02
CGACCCTA	-0.26
CTTAAATA	0.0257
AGTCGTAT	0.0498

Sequence	PBM E-score
GGTGACCA	0.00095
GGCGGACA	0.273
AATTGCCG	-0.00266
ACTCCCCG	0.0649
GCCAGTTA	0.0128
CATACGAA	0.155
CTTCCCGC	-0.231
GTCCCCTA	0.0141
AGTGAACT	-0.0536
GATAAGGC	0.0376
AAAAGGCG	0.186
CCTAATCC	0.016
AATAAATC	-0.0882
GAGTTGAA	-0.0529
AGAGCGGG	-0.14
CGAAGGCC	-0.126
AGGGCCCA	-0.369
ACCCATCA	-0.164
AACTGGCT	-0.207
ATCGGTGG	-0.218
ATCCGATG	0.0429
CAGAGCAC	-0.208
GATCTGGC	-0.0167
GGGGGCAC	-0.406
GAATGGGC	-0.297

Sequence	PBM E-score
CGCACGCG	-0.165
CCCCTTCC	-0.279
ATTCACAA	0.0966
ACTAAAGG	0.0941
CGACTCAC	-0.129
CATATCCC	0.0863
GGAAGCAC	-0.138
AGGGGAAT	-0.0162
CTAGAGAA	-0.0599
CTTAGAGA	-0.00262
TATTGCAA	0.0856
CGCAAAAG	-0.0449
CGTACCTA	-0.0103
ACTATATG	0.0622
TTAGTGAA	0.0399
CAAGGCCC	-0.266
AGAATCGG	0.144
CAAAAGAC	0.0448
GATGCCCA	0.0579
GAGGATGC	-0.254
AAGCAAGG	-0.0227
AACCTCAG	0.00123
TACCAGGA	0.174
TAAAGTCA	0.162
ATGTAGCA	-0.0326

Sequence	PBM E-score
CGTGATCC	-0.119
CTGGCGCC	-0.138
CACCCTAC	-0.0538
CGGGGAGA	-0.151
CCCTAAAG	-0.178
CTGAGCTC	0.0318
GCATATAA	0.0988
CTCGCTCA	-0.00023
CACATTGC	0.115
ATCGGATA	0.19
CTGCCTTA	-0.22
ATATCTGG	0.045
ACTACGAC	-0.0474
CTTCATTC	-0.0511
CTCCGCAG	-0.0819
ATACGTGG	-0.103
GGTTTGAC	-0.0735
CGTAGAAG	-0.00615
TAAATCCA	0.0101
ACCCCTAA	-0.0913
ACAAACGT	0.244
ACAAAGGT	0.218
ACACACAA	0.0857
AGCTGAGG	-0.105
CGAGGACC	-0.14

Sequence	PBM E-score
CCGGTTCG	-0.0144
CGAGCGCC	-0.146
GATGCAGA	-0.0332
CCTGAACG	-0.104
CTAACGAG	-0.0971
CCAACCGA	0.115
AGGCCCCA	-0.245
CACTAGAC	-0.0823
AGCTCACA	-0.111
ACTGCTAA	-0.122
ATAGTGCA	0.0246
GGATCCTA	-0.128
CCATCCAG	-0.254
CTCGCGGA	0.0586
AAATAGCA	-0.00406
GACATTGA	0.386
ATTTCCAA	0.0478
AGCTTTAT	-0.0293
AGCCATGC	-0.112
AACTTAGA	0.153
AGATGGGG	-0.336
ACGAGCGT	-0.173
CGTCTGGA	-0.0916
AGGACTTG	0.269
GCGAAGGA	-0.217

Sequence	PBM E-score
GTATAGGA	0.00436
AAGTTCCC	-0.153
GCCCCAGC	-0.259
CACCTTCC	-0.0904
TGCTGCCA	-0.196
CCCATCAA	0.0357
AAAGTCTA	0.268
ATTCCACA	0.0598
GAGAACAA	0.0874
ACTGACGC	-0.164
ACGTAGAA	-0.0507
TGAATCAA	0.0824
ATCATCTC	0.022
AAACACCA	-0.0266
GTTCAACA	0.104
AGTTTCCG	0.0551
CAGTCTAG	-0.155
ATTGGGCA	-0.0202
ACGGCCCA	-0.304
